In paper PMC6919601, “Identification of Plasmodium dipeptidyl aminopeptidase allosteric inhibitors by high throughput screening” (PLoS ONE, 2019):
Several values for one entry are separate records, joined by “and”; a condition that tells them apart may be missing. Equal entries are not always repeated. About 230 (0.21%) of roughly 110,000 compounds showed an effect of 50% or more. The list shows a part of the results.

Target: DPAP1 (Plasmodium falciparum, UniProt Q8IIJ9)
Test: primary screen, percent inhibition; read by cleavage of a fluorogenic dipeptide substrate; higher = more effect of the substance
Set-up: species or system P. falciparum D10 trophozoite lysates; single well
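Further: 30 min substrate incubation versus DMSO and 10 µM JCP410 controls.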

Sequence of DPAP1 (Q8IIJ9 whole entry, looked up): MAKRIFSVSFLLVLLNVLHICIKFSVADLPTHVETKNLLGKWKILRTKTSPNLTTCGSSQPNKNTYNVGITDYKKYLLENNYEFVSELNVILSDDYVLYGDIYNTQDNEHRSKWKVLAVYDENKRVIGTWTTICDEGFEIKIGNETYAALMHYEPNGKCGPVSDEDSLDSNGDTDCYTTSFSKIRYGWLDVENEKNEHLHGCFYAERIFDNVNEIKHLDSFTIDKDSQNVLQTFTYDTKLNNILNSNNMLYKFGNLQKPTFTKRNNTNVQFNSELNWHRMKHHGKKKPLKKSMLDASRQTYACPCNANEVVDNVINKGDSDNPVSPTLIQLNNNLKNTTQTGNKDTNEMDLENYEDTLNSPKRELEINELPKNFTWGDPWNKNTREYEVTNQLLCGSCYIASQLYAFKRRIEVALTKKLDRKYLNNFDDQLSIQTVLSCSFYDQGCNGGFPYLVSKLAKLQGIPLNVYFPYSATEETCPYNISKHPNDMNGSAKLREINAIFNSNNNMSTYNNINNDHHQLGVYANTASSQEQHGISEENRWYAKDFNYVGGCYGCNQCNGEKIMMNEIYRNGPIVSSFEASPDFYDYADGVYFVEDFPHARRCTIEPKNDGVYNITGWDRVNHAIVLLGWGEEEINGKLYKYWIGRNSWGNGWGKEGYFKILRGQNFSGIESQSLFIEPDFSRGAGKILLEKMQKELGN

Row | SMILES | % Inhibition @ 10 uM
1 | CCCN1CCN(C(=O)c2ccc(-n3ccc4ccccc43)s2)CC1 | -4.71%
2 | CS(=O)(=O)CCC(C(=O)NC1CCN(Cc2ccccc2)CC1)N1Cc2ccccc2C1=O (stereo not shown) | 5.32%
3 | O=S(=O)(NCC(c1cccnc1)N1CCOCC1)c1cc(F)ccc1F (stereo not shown) | -3.51%
4 | C=CCNC(=O)NC12CC3CC(CC(C3)C1)C2 | 14.8%
5 | Brc1ccc(OCCCCCCN2CCNCC2)cc1 | -15.4%
6 | Cc1nc2nc(NC(=O)c3ccccc3F)nn2c(O)c1Cc1ccccc1 | 2.05%
7 | COc1cccc2c1ncc1c(=O)n3cccc(O)c3nc12 | -1.85%
8 | Cc1nn(-c2ccccc2C(C)C)c2c1C(=O)CC(C)(C)C2 | 3.81%
9 | CC1CN(c2c(Cl)cccc2[N+](=O)[O-])CCN1 (stereo not shown) | -8.22%
10 | Cc1ccc(COC(=O)N[C@@H](CC(C)C)C(=O)NCC#N)cc1 | -4.93%
11 | Cn1c(=O)c2c(nc(N3CCCC3)n2C)n(C)c1=O | 0.51%
12 | O=c1cccc2n1C[C@H]1C[C@@H]2CN(CCCc2ccccc2)C1 | -1.85%
13 | COc1ccc(C2Nc3ccc4ccccc4c3C3=C2C(=O)CC(C)C3)cc1 (stereo not shown) | 5.64%
14 | Cc1ccccc1-c1nnn(Cc2ccc(-c3nn[nH]n3)cc2)n1 | 3.66%
15 | Cc1cc(C)n(C(C)CC(=O)NCc2ccccc2Cl)n1 (stereo not shown) | -3.98%
16 | COc1ccc(C(O)(C(C)C)C(CN2CCOCC2)c2ccc(Cl)cc2)cc1 (stereo not shown) | 0.00706%
17 | CCCNc1nc2ccccn2c(=O)c1/C=C1\SC(=S)NC1=O | 1.52%
18 | Cc1ccc2c(Cl)c(C(=O)N3CCN(c4ccc(Cl)cc4)CC3)sc2c1 | -6.7%
19 | Cc1ccc(C(=O)n2nc(-c3cccnc3)nc2N)cc1 | 2.31%
20 | N#C/C(=C/c1ccc(Cl)cc1)c1nc(-c2ccc(F)cc2)cs1 | -3.03%
21 | O=[N+]([O-])c1ccc(C(O)CNC(=S)Nc2ccccc2)cc1 (stereo not shown) | -6.68%
22 | COc1ccccc1C(=O)N/C(=C\c1cn(S(=O)(=O)N(C)C)c2ccccc12)C(=O)NC(C)C | -3.52%
23 | CC1CCC(N2CCN(c3ccccc3F)CC2)CC1 (stereo not shown) | -3.17%
24 | COc1cc(C2CC(C(F)(F)F)n3ncc(C(=O)O)c3N2)cc(OC)c1OC (stereo not shown) | 0.231%
25 | Cc1cc(C)c2nc(N3CCCC(C(=O)N4CCN(c5ccccn5)CC4)C3)sc2c1 (stereo not shown) | 0.137%

Row | SMILES | % Inhibition @ 10 uM
26 | COc1ccc(CCNC(=O)C(C)n2sc3ccccc3c2=O)c(OC)c1 (stereo not shown) | 0.371%
27 | O=c1c2ccccc2nc2n1S(=O)(=O)c1ccccc1-2 | -8.76%
28 | O=C(O)c1cccc(-n2cccc2/C=C2\NC(=O)N(Cc3ccc(F)cc3)C2=O)c1 | -1.36%
29 | CCSc1[nH]nc(N)c1S(=O)(=O)c1ccccc1 | 5.94%
30 | Cn1cc(NC(=O)NCC2CCCO2)c2ccccc2c1=O (stereo not shown) | 6.54%
31 | Cc1ccc2[nH]c(-c3cc[n+](C)cc3)cc2c1 | 0.658%
32 | Cn1c(=O)c2c(nc3n2CC(c2ccc(Cl)cc2)=NN3Cc2ccccc2)n(C)c1=O | -2.62%
33 | C=C(C)CNC(=S)Nc1scc(-c2ccsc2)c1C(=O)OCC | 1.57%
34 | O=C(NCc1cccc(F)c1)c1ccc2c(c1)sc1nc(-c3ccccc3)cn12 | -5.74%
35 | CCOC(=O)c1c(NC(=O)C23CC4CC(CC(C4)C2)C3)sc2c1CCCC2 | -1.36%
36 | CC(C)(C)Nc1c(-c2ccncc2)nc2ccc(Br)cn12 | 7.16%
37 | CCO/C(O)=C1/C(C)=NC(=S)NC1c1ccc(Cl)cc1 (stereo not shown) | 1.08%
38 | O=C(COc1ccc2ccccc2c1)N1CCN(C(=O)c2cccnc2)CC1 | -5.26%
39 | O=C(CCc1ccccc1)NC1(C(F)(F)F)NC(=O)N(Cc2ccco2)C1=O (stereo not shown) | 0.032%
40 | Fc1ccccc1CCNC1CCN(CCc2ccccc2)CC1 | 3.48%
41 | CN1c2ccccc2N(C)C1c1ccccc1O | -3.69%
42 | CC(=O)NC1=NC(=O)/C(=C\c2ccccc2OCc2ccc(C(=O)O)cc2)S1 | -5.51%
43 | CCCCN(CC)CCCNC(=O)c1cc2ccc3cccnc3c2[nH]1 | 1.75%
44 | CN1C=CC=C/C1=C/c1c2ccccc2nc2ccccc12 | -2.45%
45 | Cc1ccc(Cl)cc1NC(=O)CCN1C(=O)c2ccccc2C1=O | -1.64%
46 | Nc1c(C(=O)Nc2ccccc2F)sc2nc3c(cc12)CCCCC3 | 13.3%
47 | CCOC(=O)N1CCN(S(=O)(=O)c2c(C)nc3sccn3c2=O)CC1 | -2.01%
48 | Cc1ccc(CS(=O)Cc2ccc(C(=O)N3CCC4(CC3)OCCO4)o2)cc1 (stereo not shown) | -5.43%
49 | Cc1cc(C)n(-c2ccc3nncn3n2)n1 | -3.35%
50 | O=C(c1cccc(F)c1)N1CCOCC1 | -5.68%

Row | SMILES | % Inhibition @ 10 uM
51 | COc1ccc(S(=O)(=O)Nc2nc3ccccc3s2)cc1OC | 2.13% and -6.27%
52 | O=C(CSc1cn(CC(=O)N2CCCCC2)c2ccccc12)NCc1ccco1 | -3.13%
53 | COC(=O)c1cc2ccsc2n1Cc1nc(-c2ccc(C)cc2)oc1C | -3.17%
54 | O=C(Cn1nc(-c2ccccc2)ccc1=O)NCCN1CCc2ccccc2C1 | 0.514%
55 | COc1ccccc1-c1nnc(NC(=O)c2ccc(S(=O)(=O)N3CCc4ccccc4C3)cc2)o1 | -0.363%
56 | Cc1ccc(S(=O)(=O)NCC(=O)N2CCN(C(c3ccccc3)c3ccccc3)CC2)cc1 | -9.02%
57 | Cc1ccccc1OCC(=O)N(Cc1cccc(F)c1)C1CCS(=O)(=O)C1 (stereo not shown) | 5.17%
58 | O=C(Nc1nnc(S(=O)(=O)N2CCOCC2)s1)c1ccc(Cl)cc1 | 1.68%
59 | O=C(NCc1ccc2[nH]c3c(c2c1)CCCC3)c1ccccc1 | -0.138%
60 | Cc1ccc(S(=O)(=O)N(C)c2c(C)ccc(S(=O)(=O)n3nc(C)cc3C)c2C)cc1 | -5.29%
61 | COC(=O)c1c(C)oc2cc(Br)c(OCc3ccccc3C)cc12 | -2.15%
62 | CC(=O)Nc1ccc(S(=O)(=O)Nc2cc(C)ccn2)cc1 | -1.42%
63 | Cc1ccccc1C1C(C#N)=C(N)Oc2cc(N)ccc21 (stereo not shown) | 6.08%
64 | COc1ccc(C2Oc3ccc(Br)cc3C3CC(c4ccc(C)o4)=NN32)cc1OC (stereo not shown) | 0.628%
65 | CCN1CCN(Cc2ccc(OC)cc2)CC1 | 0.847%
66 | CN1C(=O)C(=CNc2ccc(O)cc2)C(=O)N(C)C1=O | -6.69%
67 | NC(=O)c1c(NC(=O)Nc2cccc(Cl)c2)sc2c1CCCCC2 | 3.53%
68 | CCOC(=O)c1sc(N2C(=O)c3oc4cc(C)c(C)cc4c(=O)c3C2c2ccc(O)cc2)nc1C (stereo not shown) | -3.36%
69 | CCOC(=O)N1CCC(NC(=O)Cn2nc(CC)n3c(cc4sccc43)c2=O)CC1 | 1.8%
70 | COc1ccc(OC)c(C2C(=O)N(C3CCC(C)CC3)CC(=O)N2Cc2ccc(C)cc2)c1 (stereo not shown) | -0.519%
71 | C=CCNC(=O)C1CC=CCC1C(=O)Nc1ccccc1 (stereo not shown) | -3.77%
72 | CCN(Cc1ccccc1)C(=O)c1ccc(CNS(=O)(=O)c2ccc(C)cc2)cc1 | -0.971%
73 | Cn1nccc1C(=O)Nc1sc2c(c1C#N)CCC2 | 1.57%
74 | CCOc1ccccc1CNc1ncnc2c1nc1n2CCCCC1 | -6.91%
75 | NC(=O)CSc1nc2nccnc2c(=O)n1Cc1ccccc1 | -0.0652%

Row | SMILES | % Inhibition @ 10 uM
76 | O=C(CCCC(=O)NCc1ccco1)NCc1ccoc1 | 3.34%
77 | CC(C)CC(=O)N1CCN(C2CCC(C)CC2)CC1 (stereo not shown) | -0.274%
78 | CC(=O)N1CCN(c2ncnc3[nH]cnc23)CC1 | -1.47%
79 | CC(C)Cc1ccc(C(C)C2=NCCN2)cc1 (stereo not shown) | -2.99%
80 | O=C(Nc1ccc(N2CCOCC2)cc1)c1ccccc1F | -2.02%
81 | CCN1CCN(CC(O)COc2ccc(C(C)(C)C)cc2)CC1 (stereo not shown) | -3.12%
82 | Cc1cc(C(=O)N2CCN(C(=O)c3ccco3)CC2)c2c(C)nn(-c3ccccc3Cl)c2n1 | 3.75%
83 | CN(C)CCN(Cc1ccco1)C(=O)c1cc2c(Cl)nc3ccccc3c2s1 | 0.809%
84 | COc1ccc(OC)c(C(=O)c2ccccn2)c1 | 2.48%
85 | CC1=C(c2ccc(C(C)C)cc2)S(=O)(=O)N=C1N1CCN(C(=O)c2ccco2)CC1 | -1.08%
86 | Cc1noc2c1C(c1cc(Br)ccc1F)C(C#N)=C(N)N2 (stereo not shown) | -0.988%
87 | O=C(O)CNC(=S)N(CCCN1CCOCC1)Cc1cccs1 | 3.04%
88 | COc1ccc2c(CNC3CCCC(C)C3C)c(C(=O)O)n(Cc3ccccc3F)c2c1 (stereo not shown) | 1.17%
89 | COc1cc(OC)cc(C(=O)Nc2nc3ccccc3s2)c1 | -8.02%
90 | CCN(CCO)Cc1csc2ccccc12 | -2.65%
91 | COc1ccc2c(=O)/c(=C\c3ccc(Br)cc3)oc3cccc1c32 | 2.17%
92 | O=C(C1CCN(c2nnc(N3CCCC3=O)s2)CC1)N1CCC2(CC1)OCCO2 | -2.85%
93 | CCC(C)c1ccc(NC(=O)C2C3C=CC(C3)C2C(=O)O)cc1 (stereo not shown) | -1.88%
94 | COc1cccc(OC)c1C(=O)Nc1cccc(Cl)c1 | 1.55%
95 | CCOC(=O)c1c(C)n(C)c2ccc(OCC(O)CNCCO)cc12 (stereo not shown) | 2.1%
96 | O=C(CSc1ccc2ccccc2n1)NCc1ccc2c(c1)OCO2 | -7.45%
97 | Fc1ccc(CNc2nc3ccc(Cl)cc3s2)cc1 | -1.24%
98 | CCOc1ccc(-c2nonc2NC(=O)C(c2ccccc2)c2ccccc2)cc1 | 5.39%
99 | CNC(=O)/C(C#N)=C/c1c(Oc2ccccc2OC)nc2ccccn2c1=O | 3.63%
100 | Cc1c(CNCc2ccc(F)cc2)c(C(=O)O)c(C)n1Cc1ccc(Cl)cc1 | -7.36%
